# Some of the results follow. These are noisy estimates, calculated here from bound and input reads.
# Molecular target: T1, Pho4 (S. cerevisiae) (UniProt P07270)
# T1 sequence: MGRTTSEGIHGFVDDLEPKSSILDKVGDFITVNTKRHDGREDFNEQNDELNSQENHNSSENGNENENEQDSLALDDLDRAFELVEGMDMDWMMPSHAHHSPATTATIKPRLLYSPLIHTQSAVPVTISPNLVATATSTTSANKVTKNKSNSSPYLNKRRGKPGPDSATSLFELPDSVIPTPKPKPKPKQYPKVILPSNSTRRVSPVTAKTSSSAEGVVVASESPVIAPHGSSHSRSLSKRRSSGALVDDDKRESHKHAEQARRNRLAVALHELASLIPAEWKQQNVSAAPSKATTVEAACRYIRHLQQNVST
# Assay: relative binding free energy (BET-seq); higher = weaker binding
# Conditions: reference: library average
row,Sequence,relative binding free energy [kcal/mol]
1,AAGGTCACGTGGTTGC,0.03
2,GGGTCCACGTGTGCTG,-0.02
3,AGAGACACGTGGATTG,0.05
4,AGTGTCACGTGCGAGG,-0.1
5,GTGGCCACGTGTAGTT,-0.09
6,TTATGCACGTGTAATA,0.03
7,TCTATCACGTGCGGGT,0.1
8,ATATACACGTGGGTGA,-0.18
9,TTACGCACGTGCTGTG,-0.22
10,TGATGCACGTGTTAAG,0.03
11,CGAGTCACGTGGGGTA,-0.03
12,GTTGGCACGTGTGTAT,0.05
13,ATAGACACGTGTGTTA,0.13
14,TGGTTCACGTGTAGCA,0.38
15,TTTTACACGTGTGAGT,0.23
16,GTTGCCACGTGTTGGC,-0.02
17,CAAGACACGTGGGTGT,-0.15
18,GTTAACACGTGGTCAT,0.18
19,CTTGGCACGTGGGTAC,-0.27
20,TCTAGCACGTGAGTGG,-0.04
21,GTAGTCACGTGATTGT,0.18
22,GTGGTCACGTGATTGT,0.33
23,CGGCACACGTGGGGTG,-0.21

row,Sequence,relative binding free energy [kcal/mol]
1,ATAAGCACGTGTTAGA,-0.14
2,GTGAGCACGTGCGGCG,-0.15
3,TGAAACACGTGGTGTT,-0.1
4,CGTCGCACGTGAATGG,0.16
5,GATTACACGTGGGTGC,0.14
6,GGTTACACGTGTGTAG,0.3
7,CTTATCACGTGTTGGA,0.11
8,GTGACCACGTGAAGGG,0.2
9,CTTGGCACGTGACAGG,0.05
10,TGGTCCACGTGACGGT,0.2
11,TACTTCACGTGTTGGA,0.25
12,GGCGTCACGTGTGAGT,0.15
13,CTGGTCACGTGAGGTG,0.32
14,GTAAGCACGTGCGGCG,0.08
15,AATGACACGTGATGGG,0.03
16,GATGTCACGTGCTGTA,0.06
17,GGTCTCACGTGCGGTG,0.13
18,TATAACACGTGTGAAG,0.18
19,TGTGACACGTGAGGGA,0.32
20,GGATGCACGTGTGTAT,0.08
21,CGTTTCACGTGAATTT,0.34
22,ATAGGCACGTGATGCG,-0.02
23,ATTTGCACGTGAGTTA,0.22

row,Sequence,relative binding free energy [kcal/mol]
1,TAAGTCACGTGTGGTG,0.19
2,AGTTACACGTGTCGTG,0
3,ATTGGCACGTGTTATA,-0.21
4,TATGCCACGTGTTGCG,-0.12
5,ATAGGCACGTGTATAG,-0.04
6,TTCATCACGTGGGTTT,0.11
7,GGGTCCACGTGTGGAC,0.26
8,CTGGGCACGTGGAGGG,-0.07
9,TTGAGCACGTGTGTTC,-0.03
10,GATAGCACGTGGGGTA,-0.11
11,GATGTCACGTGGTTCT,0.07
12,GTGTTCACGTGTACAG,0.18
13,TTCGCCACGTGGGTGT,-0.16
14,AGCGTCACGTGCTGGG,-0.03
15,AGCGTCACGTGGGAAA,0.15
16,AGGGGCACGTGAATTA,0.03
17,ATTTTCACGTGCTCGG,0.14
18,TGGTGCACGTGACTTT,0.13
19,GGGCACACGTGGACGG,0.1
20,GTCGACACGTGGGGGA,-0.03
21,GTTGGCACGTGCGATT,-0.01
22,ATTCGCACGTGTAGCG,0.05
23,TAGTGCACGTGGGTTT,-0.05

row,Sequence,relative binding free energy [kcal/mol]
1,GCCGTCACGTGAGGGG,0.26
2,GGAAGCACGTGGCGGT,-0.26
3,TGGGTCACGTGAGCGC,0.21
4,AGAGTCACGTGGTCGG,0.03
5,TAGGTCACGTGTAGGC,0.23
6,TGGGGCACGTGTGGCT,-0.16
7,GGGTGCACGTGCCTTT,0.02
8,TGTATCACGTGGGAAT,0.2
9,GTCTTCACGTGTTTTA,0.29
10,AAGGTCACGTGTTGGA,0.16
11,TGGAGCACGTGCTGTA,-0.17
12,TGCAGCACGTGCGAGT,0.05
13,GACGACACGTGGTGGG,0.06
14,GTTTGCACGTGCGAAT,0.08
15,GTTTTCACGTGCTTCG,0.32
16,GAGGACACGTGGGGTC,-0.08
17,ATAGGCACGTGGTCGG,-0.31
18,AACGTCACGTGAGAGT,0.34
19,TGGTTCACGTGAAGGA,0.47
20,ACTCGCACGTGTGGTG,0.01
21,GTTCTCACGTGGTTAG,0.38
22,TTTTGCACGTGGACAA,0.14
23,TATGGCACGTGAATGT,0.21

row,Sequence,relative binding free energy [kcal/mol]
1,GAGGTCACGTGAAATG,0.4
2,AGTCGCACGTGGGGCG,-0.29
3,GTTCGCACGTGAGGCA,0.36
4,TTGGTCACGTGCGAGC,0.11
5,TGATTCACGTGTGGTA,0.32
6,TAAGACACGTGATGTG,0.15
7,GCTTGCACGTGAGAGT,0.2
8,TAGGGCACGTGTAGAT,0.15
9,AGAGGCACGTGATGAG,-0.02
10,TTGGTCACGTGTTGCG,0.23
11,TTTTGCACGTGGTCTC,-0.01
12,GCGGGCACGTGGTTAT,0.04
13,TTCCGCACGTGTGTGA,-0.05
14,ATTAGCACGTGATTGG,0.11
15,GCAGGCACGTGAGGCG,0.24
16,GTCTTCACGTGGCGGT,0.28
17,ATGTACACGTGATTTG,0.17
18,TGGCTCACGTGGTAAT,0.12
19,TTATGCACGTGCTTGG,0
20,CGGTGCACGTGACGTT,0.14
21,TGACGCACGTGATGGG,0.09
22,ATAAGCACGTGGGATT,-0.18
23,TGTAGCACGTGGTCTA,-0.22

# Source: the BET-seq Pho4 binding data (Le et al. 2018)
